Test results reported in ChEMBL document CHEMBL1201862, “PubChem BioAssay data set” (2004).

The molecules below were run on NCI-H322M (assay: NCI-60 cell line screen, 48 h).

SMILES | GI50
c1ccc2nc3c(nc2c1)sc1nc2ccccc2n13 | inactive: > 100 µM
O=C(Cn1c(=O)oc2ccc(C(=O)c3ccccc3Cl)cc21)c1ccc([N+](=O)[O-])cc1 | inactive: 42.6 µM
CN(C)Cc1cc(/N=N/c2ccccc2Cl)cc(CN(C)C)c1O | inactive: > 100 µM
CCOc1ccc(/N=N/C2C(=O)N(C(=O)CC(=O)Nc3ccccc3OC)N=C2C)cc1 (configuration not stated) | inactive: > 75.3 µM
O=C(n1c(=O)n(-c2ccc(Cl)cc2)c(=O)n1C(=O)C(Cl)(Cl)Cl)C(Cl)(Cl)Cl | inactive: > 100 µM
CCOC(=O)/C(ON)=C(/CC/C(C(=O)OC)=C(\ON)C(=O)OCC)C(=O)OC | inactive: > 100 µM
c1csc(-c2csc(-c3cccs3)c2)c1 | inactive: > 100 µM
CCOC(=O)C1=C(C)NC(C)=C(C(=O)OCC)C1c1ccc(C)cc1 | inactive: 27.6 µM
O=C(O)CCSC(=O)Nc1ccc(/N=N/c2ccccc2)cc1 | inactive: > 100 µM
O=C1C=CC(=O)c2cc(Sc3ccccc3)c(=O)ccc21 | inactive: 15.3 µM
Cc1ccc(/C=C/C(=O)c2sc(C(N)=S)nc2C)cc1 | inactive: > 100 µM
OCCCc1cc(O)c2c(c1)C(CO)C(c1ccc(O)c(O)c1)O2 (configuration not stated) | inactive: > 100 µM
CSc1c(C#N)c(=O)n(N)c2c1c(C)nn2-c1ccccc1 | inactive: 24.2 µM
CC[C@]1(Cc2ccc(OC)c(OC)c2)[C@@H]2C[C@@H](C3OCCO3)ON2O[C@H](OC2CCCC2(c2ccccc2)c2ccccc2)[C@@H]1OC(C)=O (some centres not stated) | inactive: 45.2 µM
Cc1c(C#N)c2ccccc2c2nc3ccccc3n12 | inactive: > 100 µM
O=C1CCSc2c(cnc3ccccc23)N1 | inactive: > 100 µM
CN(C)CCNC(=O)c1cc([N+](=O)[O-])cn1C | inactive: > 100 µM
COc1c(-c2ccccc2)oc2c(CP(=O)(OC)OC)cccc2c1=O | inactive: > 100 µM
CCOC(=O)NC(C(C(=O)OCC)C(=O)OCC)(C(F)(F)F)C(F)(F)F | inactive: > 100 µM

SMILES | GI50
COC1OC2COC(=O)c3cc(O)c(O)c(O)c3-c3c(cc(O)c(O)c3O)C(=O)OC2C(O)C1O (configuration not stated) | inactive: > 100 µM
CN(c1ccc(Cl)cc1)S(=O)(=O)c1ccccc1 | inactive: > 100 µM
CCOc1ccccc1NC(=O)C(=O)CC(=O)c1c(C)[n+]([O-])c2ccccc2[n+]1[O-] | inactive: 61.5 µM
O=C(/C=C1\Nc2ccccc2N\C1=C/C(=O)c1ccc(F)cc1)c1ccc(F)cc1 | inactive: > 100 µM
N#Cc1c(N2CCCC2)ncn(Cc2ccccc2)c1=S | inactive: > 85.7 µM
C#CCOC(=O)c1ccc(OC(C)=O)cc1 | inactive: > 100 µM
COc1ccc2c(c1)C(=O)N1CCOC1C2C(=O)O (configuration not stated) | inactive: > 100 µM
N#CC(Cc1ccccc1)N(CCC1=CCCCC1)Cc1ccccc1 (configuration not stated) | inactive: > 100 µM
CN(CCCNCc1ccccn1)Cc1ccccc1O | inactive: 36.6 µM
C=CCc1oc(C)nc1CCCC | inactive: > 100 µM
CC(=O)Oc1cc2c(=O)oc3c(OC(C)=O)c(OC(C)=O)c(OC(C)=O)c4c(=O)oc(c1OC(C)=O)c2c34 | inactive: 49.5 µM
O=C(N/C(=C/c1ccc(Cl)cc1)c1nc2ccccc2c(=O)n1Nc1ccc([N+](=O)[O-])cc1[N+](=O)[O-])c1ccccc1 | inactive: > 100 µM
CC(CNC(N)=O)NC(N)=O (configuration not stated) | inactive: > 100 µM
CC(C)(C)C(=O)OCC(COC(=O)C(C)(C)C)[N+](=O)[O-] | inactive: > 100 µM
O=C1CCCC1CC(CN1CCOCC1)Sc1nnnn1-c1ccccc1 (configuration not stated) | inactive: > 100 µM
C=C1C(=O)C23CC1CCC2C12CO[C@@]3(O)[C@@H](O)C1C(C)(C)C=CC2=O (some centres not stated) | inactive: 4.74 µM
CNC(=O)C(NC(=O)[C@H](CC(C)C)NC(=O)[C@@H](S)CCN1C(=O)N(C)C(C)(C)C1=O)C(C)(C)C (some centres not stated) | inactive: > 100 µM
O=C(O)CCC(NC(=O)/C(=C/c1ccccc1)NC(=O)c1ccccc1)C(=O)O (configuration not stated) | inactive: > 100 µM

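Five compound concentrations were applied to cells in 96-well plates for 48 hours; endpoints were derived by simple linear interpolation of the resulting dose-response curve. GI50 marks 50% less growth.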 Activity calls are given as the source filed them. No stated cut-off is given here; in the data, active = GI50 up to about 1.1 µM and inactive = higher.
